Assay results: ChEMBL document CHEMBL5308541, “MAIP: An Open-Source Tool to Enrich High-Throughput Screening Output and Identify Novel, Druglike Molecules with Antimalarial Activity” (ACS Med Chem Lett, 2023)
About 540 (0.36%) of roughly 150,000 compounds showed an effect of 50% or more. The list shows a part of the results.

tested on: Plasmodium falciparum; assay: Primary screen in NF54 nanoGlo assay, in single point, at 2uM, 72h; a lower Z score goes with more inhibition; format: functional, Erythrocyte; settings: timepoint 72 hour

Row | SMILES | % Inhibition [%] | Z score
1 | Cc1nn(C)cc1CN(C)c1cncc(C(=O)N2CCCC2)n1 | -7 | 1.17
2 | c1ccc2ncc(CN3CCC(N4CCCCC4)CC3)cc2c1 | 5 | -0.87
3 | CCc1ccc(NC(=O)N2CCC[C@H](c3cccc(C(=O)NCCN4CCN(C)CC4)c3)C2)cc1 | -7 | 1.23
4 | O=C([C@@H]1CC2(CCNCC2)CN1)N1CCC(n2c(=O)[nH]c3ccccc32)CC1 | -9 | 1.56
5 | Fc1cccc2c(NCc3ccccc3OCCN3CCOCC3)ncnc12 | 10 | -1.83
6 | Cn1cc(CNC(=O)CN2CCNCC2=O)c(C(F)(F)F)n1 | -8 | 1.24
7 | Clc1cnc2nc(N[C@H]3CCCN(CCN4CCOCC4)C3)ccc2c1 | 2 | -0.42
8 | c1nc2n(c1CN1CCC3CCCCC31)CCOC2 (stereo not drawn) | 6 | -0.85
9 | COc1ccc2[nH]cc(-c3ccc(N)nc3)c2c1 | 20 | -4.06
10 | O=C1CCC2(C(=O)NCCc3c[nH]c4ccc(F)cc34)N1c1ccccc1C(=O)N2C1CC1 (stereo not drawn) | -3 | 0.68
11 | CCn1ccnc1CN1CC2CN(c3nnc(C)c4ccccc34)CC2(CO)C1 (stereo not drawn) | 5 | -0.89
12 | CN(C[C@H]1Cc2ccccc2CN1C)c1cncc(C(=O)N2CCCC2)n1 | -9 | 1.56
13 | NC1CCCCCC1NCCCC1CCCN1 (stereo not drawn) | 4 | -0.84
14 | O=C(O)CN1CCC(NS(=O)(=O)c2cnc3ccccc3c2)CC1 | -10 | 2.08
15 | O=C(Cc1c[nH]c2ncccc12)NCC1CN(C(=O)c2ccccc2)C2CCN1C2 (stereo not drawn) | -4 | 0.72
16 | CNc1nc(C)cc(N2CCC(N(C)CCn3ccc4ccccc43)CC2)n1 | 15 | -2.6
17 | c1cc(-c2cnc3nn[nH]c3c2)c2cc[nH]c2c1 | 0 | -0.09
18 | C[C@@H](CC(F)(F)F)NCc1nc2cc(F)ccc2[nH]1 | 2 | -0.5
19 | Cc1cc2cccc(C(=O)N(CCN(C)C)Cc3nc[nH]c3C)c2o1 | -3 | 0.57
20 | CCCNc1ncc(CN2CCC[C@H](c3nc4c(C)cccc4[nH]3)C2)cn1 | -4 | 0.78
21 | c1nc(NCC2CC2)cc(N2CCCN(C3CCOCC3)CC2)n1 | 0 | -0.11
22 | CS(=O)(=O)c1cc(CNC2CC3CCC(C2)N3)cc(C(F)(F)F)c1 (stereo not drawn) | -9 | 1.59
23 | COCCN1CCN(C[C@@H](O)CN2CCC(C)CC2)CC1 | 5 | -0.92
24 | CCN(C(=O)NC1CCN(C2CCN(C)CC2)CC1)[C@@H](C)c1cccnc1 | 1 | -0.15
